At least one read-out could not be matched to a standard name with certainty.
What was measured:
[1] = test system: P-388/SCHABEL; experiment: Adriamycin toxicity to resistant cells (MDR) in presence or absence of reversing agents, P-388/SCHABEL; format: cell-based, mouse
Description: (§1) Gain of Sensitivity (G.S.) = IC50 Control/IC50 R.A.
(§2) Sensitive and MDR cells were maintained, in logarithmic phase of growth, in Eagle's Minimum Essential Medium, with Earle's Balanced Salts, with non-essential amino acids, with 2.0 mM L-glutamine, without sodium bicarbonate (EMEM/neaa), supplemented with 5% Fetal Calf Serum (FCS), 10^-2 M sodium bicarbonate and 0.1 g/l penicillin G+0.1 g/l streptomycin sulfate.
(§3) This form of assay employs 96-well cell culture plates […]. Cells were seeded into wells at 1×10^3 cells per well in 100 μl aliquots of EMEM 5% FCS containing different concentrations of the corresponding lamellarins and other compounds (standards) to be tested. Two separate sets of cultures without drugs were seeded, one as control of growth to ensure that cells remained in exponential phase of growth, and another without cells as control of medium. All determinations were carried out in duplicate.
(§4) Plates were incubated for an additional 4 hours and 100 μl aliquots of isopropanol were added to each well. The broad absorption spectrum for the isopropanol solution of this crystal is optimal at 570 nm.

[2] = test system: CHOC5; experiment: Adriamycin toxicity to resistant cells (MDR) in presence or absence of reversing agents, CHOC5; format: cell-based, chinese hamster
Description: as §1, §2, §3, §4

SMILES	Gain of Sensitivity (G.S.) = IC50 Control/IC50 R.A. ([1]; R.A. 1 μg/ml)	Gain of Sensitivity (G.S.) = IC50 Control/IC50 R.A. ([2]; R.A. 1 μg/ml)	Gain of Sensitivity (G.S.) = IC50 Control/IC50 R.A. ([1]; R.A. 0.3 μg/ml)	Gain of Sensitivity (G.S.) = IC50 Control/IC50 R.A. ([2]; R.A. 0.3 μg/ml)	Gain of Sensitivity (G.S.) = IC50 Control/IC50 R.A. ([1]; R.A. 0.1 μg/ml)	Gain of Sensitivity (G.S.) = IC50 Control/IC50 R.A. ([2]; R.A. 0.1 μg/ml)	Gain of Sensitivity (G.S.) = IC50 Control/IC50 R.A. ([1]; R.A. 0.03 μg/ml)	Gain of Sensitivity (G.S.) = IC50 Control/IC50 R.A. ([2]; R.A. 0.03 μg/ml)	further results
COc1ccc(-c2c3n(c4c(=O)oc5cc(OC(C)=O)c(OC)cc5c24)CCc2c-3cc(OC)c(OC)c2OC)cc1OC [Lamellarin I-acetate]	4.8	7.5	–	–	–	–	–	–	Gain of Sensitivity (G.S.) = IC50 Control/IC50 R.A. ([1]; R.A. 3 μg/ml): 17.1; Gain of Sensitivity (G.S.) = IC50 Control/IC50 R.A. ([2]; R.A. 3 μg/ml): 37.5
COc1ccc(-c2c3n(c4c(=O)oc5cc(OC)c(OC)cc5c24)CCc2c-3cc(OC)c(OC)c2OC)cc1OC [Lamellarin I-Methylate]	30.0	25.0	6.0	7.5	–	–	–	–	–
COc1cc2c(cc1O)oc(=O)c1c2c(-c2ccc(OC)c(OC)c2)c2n1CCc1c-2cc(OC)c(OC)c1OC [Lamellarin I]	30.0	300	8.0	20.0	3.0	5.0	–	–	–
COc1cc(-c2c3n(c4c(=O)oc5cc(OC(C)=O)c(OC)cc5c24)CCc2c-3cc(OC)c(OC)c2OC(C)=O)ccc1OC(C)=O [Lamellarin K-triacetate]	–	–	–	–	–	–	3.0	3.0	–
COc1cc2c(cc1O)CCn1c-2c(-c2ccc(OC)c(OC)c2)c2c3cc(OC)c(O)cc3oc(=O)c21 [Lamellarin J]	–	–	1.7	1.5	1.3	1.2	–	–	–
COc1ccc(-c2c3n(c4c(=O)oc5cc(OC(C)=O)c(OC)cc5c24)CCc2cc(OC(C)=O)c(OC)cc2-3)cc1OC(C)=O [Lamellarin L-triacetate]	> 400	1,000	6.0	30.0	–	–	–	–	–
COc1cc(-c2c3n(c4c(=O)oc5cc(O)c(OC)cc5c24)CCc2c-3cc(OC)c(OC)c2O)ccc1O [Lamellarin K]	–	–	–	–	4.0	3.3	1.3	1.5	–
COc1cc(-c2c3n(c4c(=O)oc5cc(O)c(OC)cc5c24)C(O)Cc2c-3cc(OC)c(OC)c2OC)ccc1O (stereo not shown) [Lamellarin A]	–	–	6.0	3.0	1.7	1.5	–	–	–
COc1ccc(-c2c3c4cc(OC)c(OC(C)=O)cc4oc(=O)c3n3ccc4cc(OC(C)=O)c(OC)cc4c23)cc1OC(C)=O [Lamellarin N-triacetate]	–	–	–	–	–	–	4.0	7.5	Gain of Sensitivity (G.S.) = IC50 Control/IC50 R.A. ([1]; R.A. 0.01 μg/ml): 1.5; Gain of Sensitivity (G.S.) = IC50 Control/IC50 R.A. ([2]; R.A. 0.01 μg/ml): 1.5
COc1cc(-c2c3c4cc(OC)c(O)cc4oc(=O)c3n3ccc4c(OC)c(OC)c(OC)cc4c23)ccc1O [Lamellarin B]	4.0	4.3	–	–	–	–	–	–	Gain of Sensitivity (G.S.) = IC50 Control/IC50 R.A. ([1]; R.A. 3 μg/ml): 8.0; Gain of Sensitivity (G.S.) = IC50 Control/IC50 R.A. ([2]; R.A. 3 μg/ml): 1,000

Reference: patent publication US5852033A, “Methods of treatment using lamellarin-class alkaloids” (Pharma Mar, s.a., priority 1995, dated 1998)
